Our source for the binding signal values is paper PMC5836133.

This is one part of the list. At the low end of the ranking the order means little.

For the assay, the system named is T1, GST-NbGlk1(82-244).
T1 sequence: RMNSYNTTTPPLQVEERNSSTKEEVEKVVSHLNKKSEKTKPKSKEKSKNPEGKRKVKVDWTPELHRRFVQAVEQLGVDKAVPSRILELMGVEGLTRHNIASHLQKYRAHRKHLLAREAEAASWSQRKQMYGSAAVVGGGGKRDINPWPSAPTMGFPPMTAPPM
The experiment in a line: protein-binding microarray.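 Further: rank-based score ranging −0.5 to +0.5 with E above 0.45 taken as significant binding.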 The note with it: NbGlk1 is a Golden2-like transcription factor of Nicotiana benthamiana; high values mean tight binding; most listed sequences are background and not binding sites; double strand, one strand shown.
In turn, AGAATGTC gave a binding signal of -0.153 E-score.
The figure for AATACTTG is 0.0444 E-score; for ACTTCTTC it is -0.121 E-score.
In the case of AGAATGGG it was -0.163 E-score.
In the case of ATGCGGTC it was -0.202 E-score; in that of CAAGTTTC, -0.0676 E-score.
AAACCAAA came in with a binding signal of 0.13 E-score.
For AAACATTT, the binding signal worked out at 0.151 E-score.
In turn, ATGCCACG had a binding signal of -0.0964 E-score.
For the sequence AATTAATA, the binding signal was 0.114 E-score.
In the case of AAGCGCGC, the binding signal was -0.02 E-score.
In the case of ACTGTCCT it was -0.0225 E-score; in that of AAATATAT, 0.326 E-score; in that of ACTCCTCT, 0.0244 E-score.
As for ACAATGCC, the binding signal is -0.165 E-score.
For AGTAGCTC, the binding signal is -0.172 E-score.
The figure for ACAGGGTG is -0.264 E-score.
In the case of CAATTATG it was 0.0299 E-score; in that of AACCTGGC, -0.119 E-score.
In the case of ACCGCTTC it was -0.159 E-score; in that of ATTTTCGG, 0.237 E-score; in that of AGCCGCCA, -0.26 E-score.
Turning to AATCTAGA, the binding signal turned out to be 0.452 E-score.
The figure for AGACCGGA is 0.016 E-score; for ACATTAGG it is 0.00657 E-score; for AAAAGTGA it is 0.0333 E-score.
In the case of AAGGACGC it was -0.201 E-score.
In the case of CACGGTGA it was -0.1 E-score; in that of AACTGAAT, 0.111 E-score; in that of AGCCCACA, -0.244 E-score.
Consider ACGTTAAG, for which the binding signal turned out to be 0.0386 E-score.
As for AACTGTTA, the binding signal was determined as 0.149 E-score.
Consider CAGCGTGG, for which the binding signal is -0.0969 E-score.
In turn, ACAACCGT registered a binding signal of -0.0556 E-score.
The figure for ACAAAAGG is -0.12 E-score; for AGAAATAG it is 0.0671 E-score.
Regarding AGACGCCT, the binding signal was -0.26 E-score.
With AGCGCCCA, the binding signal is -0.224 E-score.
In the case of ACATATTG it was 0.00192 E-score; in that of ATAGCTTC, -0.12 E-score; in that of CACTCGAC, -0.126 E-score.
The figure for AAGTCGTG is -0.0835 E-score.
In the case of AACCGCCA it was -0.19 E-score; in that of AGGACCTC, -0.289 E-score.
As for ATTGATAA, the binding signal is 0.126 E-score.
In the case of ATGTCACG it was 0.00163 E-score; in that of ACCCCTGC, -0.197 E-score; in that of ATACTAGC, -0.0233 E-score.
The figure for AAGACAGT is 0.0876 E-score.
The figure for AAGATCGG is 0.151 E-score; for CAGCCTCC it is -0.266 E-score; for ATTCCTTG it is 0.228 E-score.
ACCGGGCC: the binding signal was -0.281 E-score.
As to AATATTTC, the binding signal came out at 0.34 E-score.
The figure for ATTTTTTC is 0.3 E-score; for CACGAATC it is 0.332 E-score.
With ACATGGCT, the binding signal is -0.0655 E-score.
The figure for AGATTCCT is 0.455 E-score; for ATGGAGAG it is -0.15 E-score.
As to ACCATGAG, the binding signal is -0.156 E-score.
The figure for AACCAGCT is -0.175 E-score; for ACGATACG it is 0.207 E-score.
In the case of ACGCTCTC it was -0.304 E-score; in that of AGGTTCAG, -0.154 E-score; in that of ATTGGCAG, -0.132 E-score.
In the case of ATTCTGGA it was 0.248 E-score; in that of AAAAACTA, 0.127 E-score.
Sequence ACTCATAT gave a binding signal of 0.134 E-score.
In the case of AGAGCGTA it was 0.0178 E-score; in that of ATGGGCCG, -0.139 E-score.
In the case of AGCGGCAC it was -0.163 E-score; in that of ATCCACAT, 0.256 E-score; in that of ATATCGAG, 0.296 E-score.
ACCTAGTA showed a binding signal of -0.0967 E-score.
In the case of AAGGGTAC it was -0.186 E-score.
In the case of ATAGCCCC, the binding signal was -0.0888 E-score.
Regarding AATGCTGG, the binding signal is -0.177 E-score.
In the case of AGCTCGTG it was -0.223 E-score.
In the case of AGCATCGA it was 0.0366 E-score; in that of AAACATGC, -0.0323 E-score.
On to AATGTAGT, for which the binding signal is 0.055 E-score.
The figure for AGTATACC is -0.111 E-score; for AATCGTGT it is 0.314 E-score; for ACAATGGT it is 0.0219 E-score.
The figure for AGCGACTC is -0.193 E-score.
For ACCCGAGA, the binding signal stood at 0.0141 E-score.
The figure for ACACTGAG is -0.182 E-score.
Regarding AACTGATA, the binding signal was 0.214 E-score.
In the case of AAGATCTA it was 0.356 E-score.
The figure for AGATCAAG is 0.113 E-score; for AATGCGTA it is 0.129 E-score; for ACATCGCG it is 0.0704 E-score.
The figure for AATAGTGC is -0.0111 E-score.
Take ACCCCAAG: the binding signal is -0.191 E-score.
The figure for ACTTAAAT is 0.139 E-score.
The figure for ATTCAAAA is 0.111 E-score; for AGCGACCT it is -0.243 E-score; for AGCCATTC it is -0.114 E-score.
Regarding AAGCCGAC, the binding signal was -0.13 E-score.
In the case of AACATCTT it was 0.0923 E-score.
In the case of AAAGGTGA it was 0.0514 E-score; in that of AACGGATG, -0.0818 E-score.
In the case of AGCATAGC it was -0.228 E-score; in that of ACACTGAT, 0.187 E-score.
As for ATGCCCCC, the binding signal is -0.174 E-score.
ACCTGGAG showed a binding signal of -0.229 E-score.
In the case of ACCTCAGC it was -0.231 E-score; in that of AACCAGTC, -0.295 E-score.
In the case of AGTCGGGG it was -0.163 E-score.
In the case of AATTCCCG it was 0.27 E-score; in that of CAAACATG, -0.0161 E-score.
Sequence AGCCAGGA gave a binding signal of -0.0421 E-score.
The figure for ACCGTATC is 0.274 E-score; for ACGCTACG it is -0.105 E-score; for AAAGTGTA it is 0.0173 E-score.
The figure for ATGGATGG is -0.169 E-score; for ATATTCTA it is 0.25 E-score; for AGCTGTTG it is -0.102 E-score.
The figure for ACCAAGGA is -0.167 E-score; for AAACGATG it is -0.16 E-score.
Regarding ATTTTCCA, the binding signal came out at 0.294 E-score.
Sequence AACTGGAG came in with a binding signal of -0.157 E-score.
In the case of ACATTTGG it was -0.0359 E-score; in that of ACACCCCC, -0.21 E-score; in that of ACCGCACG, -0.087 E-score.
The figure for ACGTTATG is -0.0468 E-score; for ACGCCCCT it is -0.251 E-score; for AAGGAGTG it is -0.198 E-score.
The figure for ATACGCTG is 0.148 E-score.
Consider ACGGGACA, for which the binding signal was -0.0397 E-score.
The figure for ACAGTCCT is -0.249 E-score; for CAATTGTG it is -0.0156 E-score.
ACCGGATC showed a binding signal of 0.21 E-score.
In the case of CAGAGCGC it was -0.152 E-score; in that of ATTGCTGG, 0.129 E-score; in that of AACTAGGA, 0.00745 E-score.
In the case of CACCCAAG it was -0.239 E-score; in that of ACGCACAA, -0.00729 E-score.
In the case of AGTATACG it was 0.0327 E-score; in that of AGTCAGAA, 0.00767 E-score; in that of AAGCAGAT, 0.244 E-score.
In the case of AACCGCTT, the binding signal is -0.0922 E-score.
For the sequence AAATTGTC, the binding signal was found to be 0.129 E-score.
In the case of AACATTAG it was 0.0375 E-score; in that of ATTAGACC, -0.0532 E-score.
The figure for ACGAGGGA is -0.085 E-score.
The figure for AGGTCTAG is -0.17 E-score; for ATATCCCG it is 0.317 E-score.
The sequence AACTTAGA displayed a binding signal of 0.0841 E-score.
In the case of CAGACGCG it was -0.00846 E-score; in that of AGCAGGAT, 0.13 E-score.
For the sequence ATTTAGAA, the binding signal was determined as 0.279 E-score.
Turning to ACAGACAT, the binding signal is -0.00831 E-score.
The figure for ACGCCGCG is -0.129 E-score.
The figure for AGTAAGGA is 0.0328 E-score; for CAAGTAAC it is -0.0603 E-score; for AGAGGCAT it is -0.0539 E-score.
The figure for ATAATCAT is 0.225 E-score.
On to AAAGGGAT, for which the binding signal came out at 0.174 E-score.
ACTTCGGC registered a binding signal of -0.0867 E-score.
On to ACGTAGAA, for which the binding signal stood at 0.191 E-score.
The figure for ATACGATG is 0.167 E-score; for AACGGAGG it is -0.131 E-score; for AGTCACAG it is -0.154 E-score.
In turn, CAAGCCCA had a binding signal of -0.102 E-score.
In the case of AAAGCAAG it was 0.0292 E-score; in that of AAACACTG, -0.0682 E-score.
In the case of ATCTATTA it was 0.274 E-score; in that of AAGGGCCA, -0.307 E-score; in that of ATACTTTC, 0.152 E-score.
In the case of AAATAATC it was 0.211 E-score; in that of ACGAGCCG, -0.348 E-score.
